# In patent US6706740B2, “Fungicidal heterocyclic aromatic amides and their compositions, methods of use and preparation” (Dow AgroSciences LLC, priority 1999, dated 2004):
# Tested on: Plasmopara viticola—PLASVI
# Test: whole plant or invertebrate
# Type: in vivo
# Details: 100 ppm, 24 hour protectant, grape; control of fungal infection vs untreated plants
row,Structure (SMILES),PLASVI in vivo 1 Day Protectant
1,COc1ccnc(C(=O)N[C@@H]2CC(C)(C)C[C@](C)(C(=O)N(C)CCc3ccccc3)C2)c1O [Compound 263],− (<25% control of fungal infection)

# Same assay, conditions: Plasmopara, 24 h, read-out: PLASVI in vivo 1 Day Protectant, 100 ppm, 24 hour protectant, grape; control of fungal infection vs untreated plants
row,Structure (SMILES),pest or weed control at 100 ppm [%]
1,O=C(NCc1ccc(Cl)cc1)c1ncccc1O [Compound 220],25 to 74
2,O=C(OC1CCC(NC(=O)c2ncccc2O)CC1)c1ccccc1 (stereo not shown) [Compound 211],< 25
3,O=C(NC1CCC(O)CC1)c1ncccc1O (stereo not shown) [Compound 208],< 25
4,COc1ccnc(C(=O)N[C@H]2CC[C@H](Oc3ccc(C(F)(F)F)cc3)CC2)c1O [Compound 270],25 to 74
5,COc1ccnc(C(=O)NC2C3CSC2CN(Cc2ccccc2)C3)c1O (stereo not shown) [Compound 325],25 to 74
6,COc1ccnc(C(=O)NC2CCCC2O)c1O (stereo not shown) [Compound 248],< 25
7,COc1ccnc(C(=O)NC2CCCCCCC2)c1O [Compound 282],< 25
8,CCC1(C)CC(NC(=O)c2nccc(OC)c2O)CC(C)(C)C1 (stereo not shown) [Compound 251],25 to 74
9,O=C(Nc1ccc(Oc2ccc(C(F)(F)F)cc2)cc1)c1ncccc1O [Compound 217],< 25
10,O=C(NCc1ccccc1Cl)c1ncccc1O [Compound 218],25 to 74
11,COc1ccnc(C(=O)NCC(C)(C)Sc2ncc(C(F)(F)F)cc2Cl)c1O [Compound 244],< 25
12,Cc1ccnc(C(=O)Nc2ccc(Oc3cccc(C(F)(F)F)c3)cc2)c1O [Compound 238],< 25
13,COc1ccnc(C(=O)NC/C=C(\C)CCC=C(C)C)c1O [Compound 242],< 25
14,COCCCc1ccc2c(c1)OC(C)C(NC(=O)c1nccc(OC)c1O)C2=O (stereo not shown) [Compound 322],< 25
15,O=C(NCCCCc1ccccc1)c1ncccc1O [Compound 234],25 to 74
16,COc1ccnc(C(=O)NC2CCCC(Sc3ccc(C(F)(F)F)cn3)C2)c1O (stereo not shown) [Compound 274],25 to 74
17,CC(C)C(=O)OC1CCC(NC(=O)c2ncccc2O)CC1 (stereo not shown) [Compound 210],< 25
18,COc1ccnc(C(=O)N[C@H]2CC3OC2[C@H](C)[C@@H](OCc2ccccc2)[C@H]3C)c1O (stereo partly shown) [Compound 321],< 25

# Same assay, conditions: Plasmopara, 24 h, read-out: PLASVI in vivo 1 Day Protectant, 100 ppm, grape, 24 hour protectant, % control of fungal infection vs untreated plants
row,Structure (SMILES),pest or weed control at 100 ppm [%]
1,COc1ccnc(C(=O)Nc2ccc(Oc3ccc(C(F)(F)F)cc3)cc2)c1OS(C)(=O)=O [Compound 723],25 to 74
2,COCCC(=O)Oc1c(OC)ccnc1C(=O)Nc1ccc(C(=O)c2cccc(C(F)(F)F)c2)cc1 [Compound 706],25 to 74
3,COc1ccnc(C(=O)N[C@H]2COC(=O)[C@H](Cc3ccccc3)[C@@H](OC(=O)C(C)C)[C@H](C)OC2=O)c1OC(=O)c1ccc(F)c(F)c1 [Compound 639],< 25
4,CCCCCCC(=O)Oc1c(OC)ccnc1C(=O)N[C@H]1COC(=O)[C@H](Cc2ccccc2)[C@@H](OC(=O)C(C)C)[C@H](C)OC1=O [Compound 613],< 25
5,COc1ccnc(C(=O)N[C@H]2COC(=O)[C@H](Cc3ccccc3)[C@@H](OC(=O)C(C)C)[C@H](C)OC2=O)c1OC(=O)c1cnc(Cl)c(Cl)c1 [Compound 670],< 25
6,COc1ccnc(C(=O)N[C@H]2COC(=O)[C@H](Cc3ccccc3)[C@@H](OC(=O)C(C)C)[C@H](C)OC2=O)c1OC(=O)C1CCCCC1 [Compound 612],< 25
7,COc1ccc(C(=O)Oc2c(OC)ccnc2C(=O)N[C@H]2COC(=O)[C@H](Cc3ccccc3)[C@@H](OC(=O)C(C)C)[C@H](C)OC2=O)cc1 [Compound 634],< 25
8,COc1ccnc(C(=O)N[C@H]2COC(=O)[C@H](Cc3ccccc3)[C@@H](OC(=O)C(C)C)[C@H](C)OC2=O)c1OS(=O)(=O)c1ccc(C)cc1 [Compound 722],< 25

# Same assay, conditions: Plasmopara, 24 h, read-out: PLASVI in vivo 1 Day Protectant, 100 ppm, grape, 24 hour protectant; control of fungal infection vs untreated plants
row,Structure (SMILES),pest or weed control at 100 ppm [%]
1,COc1ccnc(C(=O)Nc2cccc(Oc3ccc(Cl)cc3)c2)c1O [Compound 440],< 25
2,CCCO[C@@H]1[C@@H](OCCC)[C@H](OCCC)CO[C@H]1NC(=O)c1nccc(OC)c1O [Compound 331],< 25
3,COC(=O)C(COC(=O)C(C)c1ccccc1)NC(=O)c1nccc(OC)c1O (stereo not shown) [Compound 343],< 25
4,COc1ccnc(C(=O)Nc2ccc(OC3CC(C)(C)CC(C)(C)C3)cc2)c1O [Compound 458],< 25
5,COc1ccnc(C(=O)N[C@H]2COC(=O)[C@H](Cc3ccccc3)[C@@H](OC(=O)Cc3ccccc3)[C@H](C)OC2=O)c1O [Compound 395],< 25
6,COc1ccnc(C(=O)Nc2cccc(NC(=O)c3ccc(C(F)(F)F)cc3)c2)c1O [Compound 454],< 25
7,COc1ccnc(C(=O)Nc2cccc(C(=O)Nc3ccc(C(F)(F)F)cc3)c2)c1O [Compound 450],< 25
8,COc1ccnc(C(=O)N[C@@H]2OC[C@@H](OCc3ccccc3)[C@H](OCc3ccccc3)[C@H]2OCc2ccccc2)c1O [Compound 332],< 25
9,COc1ccccc1Oc1ccc(NC(=O)c2nccc(OC)c2O)cc1 [Compound 433],< 25
10,COc1ccnc(C(=O)NC(C(=O)OCC(C)C)C(C)OC(=O)C(C)Cc2ccccc2)c1O (stereo not shown) [Compound 360],25 to 74
11,COc1ccnc(C(=O)N[C@H]2COC(=O)[C@H](Cc3ccccc3)[C@@H](OC(C)=O)[C@H](C)OC2=O)c1O [Compound 385],< 25
12,COc1ccnc(C(=O)N[C@@H](Cc2ccc(OCc3ccccc3)cc2)C(=O)OCc2ccccc2)c1O [Compound 339],< 25
13,COc1ccnc(C(=O)N[C@H]2COC(=O)[C@H](Cc3ccccc3)[C@@H](OC(=O)c3ccccc3)[C@H](C)OC2=O)c1O [Compound 394],< 25
14,COc1ccnc(C(=O)Nc2cccc(Sc3ccc(C(F)(F)F)cc3)c2)c1O [Compound 444],25 to 74
15,COc1ccnc(C(=O)Nc2ccc(Oc3ccc(C#N)cc3)cc2)c1O [Compound 422],< 25
16,COc1ccnc(C(=O)N[C@H]2COC(=O)[C@H](Cc3ccccc3)[C@@H](OCC(C)C)[C@H](C)OC2=O)c1O [Compound 384],< 25
17,COc1ccnc(C(=O)Nc2ccc(Oc3ccc(C)cc3)cc2)c1O [Compound 417],< 25
18,COc1ccnc(C(=O)Nc2ccc(Nc3cccc(C(F)(F)F)c3)cc2)c1O [Compound 410],< 25
19,COc1ccnc(C(=O)Nc2ccc(C(=O)Oc3cccc(C(F)(F)F)c3)cc2)c1O [Compound 451],< 25
20,COc1ccnc(C(=O)Nc2ccc(Oc3ccc(Cl)cc3)cc2)c1O [Compound 443],25 to 74
21,COc1ccnc(C(=O)Nc2ccc(Sc3cccc(C(F)(F)F)c3)cc2)c1O [Compound 445],< 25
22,COc1ccnc(C(=O)Nc2ccc(OCc3cccc(C(F)(F)F)c3)cc2)c1O [Compound 447],25 to 74
23,COc1ccnc(C(=O)Nc2ccccc2Oc2ccccc2C#N)c1O [Compound 418],< 25
24,COc1ccnc(C(=O)N[C@H]2C[C@@H](O[Si](C)(C)C(C)(C)C)O[C@@H](C)[C@@H]2OCc2ccccc2)c1O [Compound 328],25 to 74

# Same assay, conditions: Plasmopara, 24 h, read-out: PLASVI in vivo 1 Day Protectant, grape plants, 100 ppm, 24 hour protectant; control of fungal infection vs untreated plants
row,Structure (SMILES),pest or weed control at 100 ppm [%]
1,CCOc1ccnc(C(=O)Nc2ccc(Oc3cccc(C(F)(F)F)c3)cc2)c1O [Compound 476],< 25
2,CC(NC(=O)c1nc(Br)ccc1O)c1ccc(Cl)cc1 (stereo not shown) [Compound 487],< 25
3,O=C(NC1CCCCC1)c1cccnc1O [Compound 515],25 to 74
4,O=C(Nc1cccc(Oc2ccc(C(F)(F)F)cc2)c1)c1nc(Br)ccc1O [Compound 496],< 25
5,N#Cc1ccc(Oc2cccc(NC(=O)c3nc(Br)ccc3O)c2)cc1 [Compound 500],< 25
6,C=C1COC(=O)[C@@H](NC(=O)c2nccc(OC)c2OC(C)=O)COC(=O)C1 [Compound 595],25 to 74
7,COc1ccnc(C(=O)N[C@@H]2C[C@@H](C(F)(F)F)C[C@@H](C(F)(F)F)C2)c1OC(C)=O [Compound 577],< 25
8,CC1(C)CC(NC(=O)c2cn(-c3ccccc3)nc2O)CC(C)(C)C1 [Compound 559],< 25
9,CSc1ccnc(C(=O)Nc2ccc(Oc3cccc(C(F)(F)F)c3)cc2)c1O [Compound 479],< 25
10,CC(NC(=O)c1ccncc1O)c1ccc(OC(F)(F)F)cc1 (stereo not shown) [Compound 511],25 to 74
11,O=C(Nc1cccc(Oc2ccccc2)c1)c1cccnc1O [Compound 521],< 25
12,O=C(NCc1sccc1Cl)c1nc(Br)ccc1O [Compound 484],< 25
13,Cc1cc(C)c(C(=O)N[C@H]2COC(=O)[C@H](Cc3ccccc3)[C@@H](OC(=O)C(C)C)[C@H](C)OC2=O)c(O)n1 [Compound 529],< 25
14,CCCC[C@H]1C(=O)O[C@H](C)C(NC(=O)c2cccc(NC(=O)c3nccc(OC)c3O)c2O)C(=O)O[C@@H](C)[C@@H]1OC(=O)CC(C)C (stereo partly shown) [Compound 473],< 25
15,CC(C)C(=O)O[C@H]1[C@H](C)OC(=O)[C@@H](NC(=O)c2nc3ccccc3cc2O)COC(=O)[C@@H]1Cc1ccccc1 [Compound 562],< 25
16,CC(NC(=O)c1nc(Br)ccc1O)c1ccc(C(F)(F)F)cc1 (stereo not shown) [Compound 488],25 to 74
17,O=C(NCC1CCCc2ccccc21)c1nc(Br)ccc1O (stereo not shown) [Compound 485],25 to 74
18,CC1(C)CC(NC(=O)c2nc3ccccc3nc2O)CC(C)(C)C1 [Compound 563],< 25
19,CC(C)(C)CNC(=O)c1cccnc1O [Compound 514],< 25
